# Out of some 310,000 compounds screened, about 2,200 (0.71%) showed an effect of 50% or more. The effect is printed as a negative number. The list shows a part of the results.
# Molecular target: human ether-à-go-go-related gene (hERG) potassium channel (human, UniProt Q12809)
# Assay: primary screen, population patch clamp on CHO cells stably expressing hERG
# Sequence of human ether-à-go-go-related gene (hERG) potassium channel (Q12809 whole entry, looked up): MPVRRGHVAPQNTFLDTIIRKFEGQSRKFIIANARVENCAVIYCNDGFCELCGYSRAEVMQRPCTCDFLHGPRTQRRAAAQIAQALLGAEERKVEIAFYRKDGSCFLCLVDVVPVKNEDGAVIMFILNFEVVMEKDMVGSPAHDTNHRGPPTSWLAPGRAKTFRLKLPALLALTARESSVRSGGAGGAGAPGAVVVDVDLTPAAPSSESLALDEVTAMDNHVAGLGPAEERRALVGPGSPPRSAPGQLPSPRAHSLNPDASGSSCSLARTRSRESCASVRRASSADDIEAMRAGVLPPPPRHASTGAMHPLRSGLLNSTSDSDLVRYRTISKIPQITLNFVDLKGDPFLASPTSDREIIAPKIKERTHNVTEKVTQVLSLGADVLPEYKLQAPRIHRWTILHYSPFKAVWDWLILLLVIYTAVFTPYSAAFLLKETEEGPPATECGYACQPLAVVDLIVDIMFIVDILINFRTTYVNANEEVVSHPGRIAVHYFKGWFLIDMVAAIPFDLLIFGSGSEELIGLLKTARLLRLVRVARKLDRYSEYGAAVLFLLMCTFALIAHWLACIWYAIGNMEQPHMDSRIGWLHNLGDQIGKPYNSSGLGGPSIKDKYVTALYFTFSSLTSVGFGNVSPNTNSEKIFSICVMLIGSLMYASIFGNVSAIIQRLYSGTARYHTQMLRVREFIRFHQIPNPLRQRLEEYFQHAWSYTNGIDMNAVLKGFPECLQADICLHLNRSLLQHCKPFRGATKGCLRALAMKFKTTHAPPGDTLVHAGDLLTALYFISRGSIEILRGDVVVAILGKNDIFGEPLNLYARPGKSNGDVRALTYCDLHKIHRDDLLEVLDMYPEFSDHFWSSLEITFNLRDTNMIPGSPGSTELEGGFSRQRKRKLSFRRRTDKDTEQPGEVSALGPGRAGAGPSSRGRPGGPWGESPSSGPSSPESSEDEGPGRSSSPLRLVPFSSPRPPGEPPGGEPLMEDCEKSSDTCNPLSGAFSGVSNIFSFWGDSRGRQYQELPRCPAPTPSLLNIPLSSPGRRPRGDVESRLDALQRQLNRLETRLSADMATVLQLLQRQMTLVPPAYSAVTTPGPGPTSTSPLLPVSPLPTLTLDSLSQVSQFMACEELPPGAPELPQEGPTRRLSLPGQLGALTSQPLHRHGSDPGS
row,SMILES,"hERG current change (%, negative = inhibition) at 1uM [%]"
1,COc1ccc(/C=C2\N=C(C)OC2=O)cc1[N+](=O)[O-],11.3
2,O=C(Cc1ccc(Br)cc1)NC1CCCCC1,2.36
3,Cc1ccc(C)c(NC(=O)C2CCCC2)c1,15.5
4,Cc1occc1C(=O)N/N=C/c1sc(N2CCOCC2)nc1-c1ccccc1,7.26
5,O=C(c1cccs1)N1CCN(S(=O)(=O)N2CCCCC2)CC1,5.51
6,O=C(Cc1nnc(NC(=O)Nc2ccc(F)cc2)s1)NCc1ccccc1,12.7
7,CCN1CCN(c2ccc(S(=O)(=O)N3CCOCC3)cc2NC(=O)c2cc(Cl)nc3ccccc23)CC1,6.24
8,O=C(NC(=S)Nc1ccc2[nH]c(=O)[nH]c2c1)c1ccccc1Cl,14.4
9,C=C(C)C(=O)N1CC2(CC(c3cccc(NC(=O)/C=C\C=C/C)c3)=NO2)C[C@H]1C(N)=O (stereo partly shown),7.43
10,CSC(=NCc1cccnc1)NS(=O)(=O)c1cccs1,11.7
11,O=C(Nc1ccc(C(=O)N2CCOCC2)cc1)c1cccs1,20.3
12,CN(c1ccc(OCC(=O)OCC(=O)Nc2ccccc2F)cc1)S(=O)(=O)c1cccs1,16.7
13,Cc1ccc(NC(=O)NCCCl)cc1S(=O)(=O)N1CCOCC1,9.2
14,C=C(C)CCOC(=O)C(CC(=O)O)NCc1ccco1 (stereo not shown),11.8
15,COc1cccc(NC(=O)CN(C)C(C)C(=O)NC(=O)NC2CCCCC2)c1 (stereo not shown),5.93
16,Cc1ccc(SCC(=O)OCC(=O)N(CC(C)C)c2c(N)n(Cc3ccccc3)c(=O)[nH]c2=O)cc1C,17.7
17,Cn1nnnc1SCC(=O)Nc1nc(-c2ccccc2)c(-c2ccccc2)o1,2.31
18,Cc1ccccc1-c1nc2ccccc2[nH]1,-4.77
19,Cc1c(CC(=O)N2CCN(C(=O)C3COc4ccccc4O3)CC2)c(=O)oc2cc(O)ccc12 (stereo not shown),5.7
20,CCN1CCN(C(=O)c2ccccc2N(Cc2ccccc2)S(=O)(=O)c2ccc(C)cc2)CC1,-14.6

row,SMILES,"hERG current change (%, negative = inhibition) at 1uM [%]"
1,O=C(CSc1nc(=O)n(Cc2ccccn2)c2c1CCC2)Nc1ccc(F)cc1F,6.01
2,CCN1C(=O)C(=O)N(CC(=O)NC(C)CCc2ccccc2)C1=O (stereo not shown),5.87
3,CCCC(C(=O)Nc1ccc(S(=O)(=O)N2CCCC2)cc1)c1ccccc1 (stereo not shown),13.9
4,COC(=O)C(C)N(C#N)c1nc(C)cc(C)n1 (stereo not shown),5.58
5,COCCN1Cc2cccc(C(=O)Nc3cccc(C)c3C)c2C1=O,1.38
6,O=C(Nc1ccc(N2CCOCC2)cc1)Nc1cnsn1,2.13
7,COc1ccc2c(c1OC)C(=O)N1N=C(c3ccccc3)CC21 (stereo not shown),3.26
8,CC(C)CNc1cc(=O)n(C)c(=O)n1C,12.1
9,O=C(NCC1CCCO1)C(c1ccncc1)N(Cc1ccc(F)cc1)C(=O)CN1C(=O)c2ccccc2S1(=O)=O (stereo not shown),-51.2
10,Cc1ccc(NC(=O)CSc2nccn2Cc2ccco2)c(C)c1,13.4
11,Cc1ccc(S(=O)(=O)Nc2c(O)c3ccccc3oc2=O)cc1C,14.6
12,O=C(NN1C(=O)c2ccccc2C1=O)C1CCCCC1,2.91
13,CCS(=O)(=O)Nc1ccc2c(c1)N(C(C)=O)c1ccccc1CC2,0.669
14,CCCOc1ccc(C2=CC(=O)C[C@H](c3ccc(OC)cc3)C2)cc1,20.2
15,CSc1nnc(C)c(=O)n1COC(=O)COc1ccccc1,14.4
16,O=C(Cn1[nH]c(=O)c2ccccc2c1=O)OCC(=O)c1ccc(F)cc1,15.2
17,CN(CC(=O)NC(=O)NCc1ccccc1)Cc1cccc(Cl)c1Cl,8.14
18,O=c1cc(CN2CCN(c3ccccc3)CC2)nc2scc(-c3ccccc3)n12,7.25
19,O=C(Nc1ccccc1)N1CCC(n2c(=O)[nH]c3ccccc32)CC1,3.01
20,CN(C)S(=O)(=O)c1cccc(C(=O)OCC(=O)Nc2ccccc2OC(F)F)c1,13.9

row,SMILES,"hERG current change (%, negative = inhibition) at 1uM [%]"
1,COC(=O)C(CC(C)C)NC(=O)c1ccc(F)cc1 (stereo not shown),13
2,CCC(=O)Nc1cc2c(C)cc(=O)oc2cc1C,-0.915
3,C/C(=C\c1ccccc1)C(=O)n1nnc2ccccc21,6.05
4,COc1ccc(CC(=O)N2CCN(c3ccc(C4=NNC(=O)CC4C)cc3)CC2)cc1 (stereo not shown),8.78
5,CCOC(=O)C1=C(COC(=O)/C=C/c2cccc(OC)c2)NC(=O)NC1C (stereo not shown),6.4
6,CCCN(CCC)S(=O)(=O)c1cccc(-c2csc(C)n2)c1,-2.79
7,CC(=NCCN1CCOCC1)c1c(O)n(C2CCCCC2)c(=O)[nH]c1=O,-3.28
8,Cc1cc(NC(=O)Cc2c(F)cccc2Cl)no1,10.9
9,NS(=O)(=O)c1ccc(NC(=O)c2ccc(S(=O)(=O)N3CCOCC3)o2)cc1,13.9
10,COc1cccc(C(=O)NCC(=O)OCc2ccc(F)cc2Cl)c1,13.5
11,O=C(NCCN1CCOCC1)c1cccs1,3.28
12,COc1ccc(Br)cc1-c1noc(-c2ccccc2)n1,16.4
13,CCc1cccc(NC(=S)N(CCOC)C(C)c2ccco2)c1 (stereo not shown),10.9
14,COc1ccc(NC(=O)C2CC(c3ccc(Cl)cc3)=NO2)cc1OC (stereo not shown),5.9
15,COc1ccc(NS(=O)(=O)c2cccc(NC(=O)C3=NN(c4ccccc4)C(=O)CC3)c2)cc1,4.1
16,O=S(=O)(NC1CCCCC1NCc1ccco1)c1ccccc1 (stereo not shown),8.15
17,c1cc(SSc2ccncc2)ccn1,12.9
18,CC(=O)NNC(=O)c1csc(Cc2c(Cl)sc3ccc(Cl)cc23)n1,7.13

# From PMC4336329 (PLoS ONE, 2015)
